Results: PubChem BioAssay AID1347120 (National Center for Advancing Translational Sciences (NCATS), 2019)
In all, about 390,000 compounds went through this assay and about 930 (0.24%) were called active. This list was built around the results that the source calls inconclusive (neither active nor inactive); the mix of calls is not that of the screen. The call rests on the fitted dose curve; in most records, active means well fitted activation curve with a large enough effect; inconclusive means small, poorly fitted or top-dose-only effect; inactive means no such curve, though single readings can be large or run the other way. Where the call is inconclusive, the potency comes from a doubtful curve fit.

Experiment: qHTS for Suppressors of FUS Proteinopathy: Primary screen using FUS-linked yeast assay; further: nearly all actives have a fitted effect of over 55% in size;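 on growth rescue (activation): plate controls were DMSO vehicle for no effect and reference control for full effect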
Settings: S. cerevisiae FUS-expressing, OD600, 24 h; Potency: growth rescue; growth rescue (activation): at 76.6 µM (top of the series)
Procedure, shortened: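 Galactose (2%) drives FUS expression in yeast precultured in raffinose; seeding density OD 0.005. Test compounds incubated 24hr at 30C and 99% humidity before absorbance at 600 nm was measured.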
Potency means the concentration at half of the fitted maximal effect; tags describe the fitted curve by direction and shape.

SMILES | Potency | growth rescue (activation)
CCCCCC(=O)Nc1nc(C)c(-c2csc(Nc3cc(OC)ccc3OC)n2)s1 | inconclusive: 35.5 µM [activator, partial curve, poor fit] | 
CCOC(=O)c1ccc(NC(=O)CC2C(=O)N(c3ccccc3)C(=O)N2Cc2ccc(C)cc2)cc1 (configuration not stated) | inactive | 
CC(/C=N/n1c(-c2cc(C)[nH]n2)n[nH]c1=S)=C\c1ccccc1 | inactive | 
O=C(c1ccco1)N(Cc1ccc([N+](=O)[O-])cc1)c1ccc(Br)cc1 | inactive | 
CC(C)(C)C(=O)Nc1ccc(-c2nc3ccccc3s2)cc1 | inactive | 
CN(C)c1ccc(C(=O)Nc2cccc(S(=O)(=O)N3CCCC3)c2)cc1 | inconclusive: 39.8 µM [activator, single point] | 
Cc1ccc(NC(=O)c2ccc(S(=O)(=O)N3CC(C)CC(C)C3)cc2)cc1S(=O)(=O)N1CCOCC1 (configuration not stated) | inactive | 
CCOc1ccccc1N1CCN(C(=O)c2ccc(S(=O)(=O)Nc3ccccc3)cc2)CC1 | inconclusive: 20 µM [activator, single point] | 
Cc1ccc(-n2c(SCC(=O)Nc3ccc4c(c3)OCO4)nnc2-c2cccs2)cc1 | inconclusive: 28.2 µM [activator, partial curve, poor fit] | 
COc1ccccc1CNc1ccc(-c2nc(-c3ccccn3)no2)cc1[N+](=O)[O-] | inactive | 
Cn1cc(C(=O)c2ccc(Cl)cc2Cl)cc1C(=O)N/N=C(\N)COc1ccccc1 | inconclusive: 50.1 µM [activator, partial curve, poor fit] | 
O=C(Cc1ccc(NC(=O)N2CCCCc3ccccc32)cc1)NCc1ccccc1Br | inconclusive: 31.6 µM [activator, single point] | 
O=c1[nH]c2cc3c(cc2cc1C(c1nnnn1Cc1ccccc1)N1CCN2CCCC2C1)OCCO3 (configuration not stated) | active: 17.8 µM | 
O=C(NNC(=S)Nc1ccc(C(=O)O)c(O)c1)c1ccncc1 | inconclusive: 39.8 µM [activator, single point] | 
Cn1cccc1CN1CCC[C@]2(N[C@H](c3ccc(C(F)(F)F)cc3)[C@@H]3C(=O)N(Cc4ccccc4)C(=O)[C@@H]32)C1=O | inconclusive: 28.2 µM [activator, single point] | 
Cc1ccc(C(=O)c2cc([N+](=O)[O-])ccc2N2CCCCC2)cc1C | inconclusive: 11.2 µM [activator, partial curve, poor fit] | 
C=CC[C@@H](CC(=O)N(CCO)Cc1ccccc1)C(=O)N[C@H](COC(=O)[C@@H](CC=C)CC(=O)OC(C)(C)C)Cc1c[nH]c2ccccc12 | inconclusive: 17.8 µM [activator, partial curve] | 
O=C(N/C=C/c1ccco1)NCc1ccccc1 |  | inconclusive: -62.5% [activator]
Cc1cccc(-c2cccc(NC(=O)C3CCCN(C(=O)c4cccnc4)C3)c2)c1 (configuration not stated) | inconclusive: 17.8 µM [activator, partial curve] | 
COc1ccccc1Cc1c(-c2ccc(OC)c(OC)c2)nc2ccc(Cl)cn12 | inconclusive: 20 µM [activator, partial curve] | 
CN(CCc1ccccc1)C(=O)c1ccc(NC(=O)Cc2cccc(NC(=O)C3CCN(C(=O)c4ccccc4)CC3)c2)cc1 | inconclusive: 50.1 µM [activator, single point] | 

SMILES | Potency | growth rescue (activation)
COc1ccc(-c2ccc(N3C(c4cc(OC)cc(OC)c4)=Cc4ccc(OC)cc4C3CC(C)=O)cc2)cc1 (configuration not stated) | inconclusive: 22.4 µM [activator, single point] | 
Clc1ccc(OCCOCCOc2cccc3cccnc23)c(Br)c1 | inconclusive: 5.01 µM [activator, full curve, poor fit] | 
COc1cccc(CNC(=O)CCN2C(=O)[C@@H]3Cc4ccccc4CN3C2=O)c1 | inconclusive: 50.1 µM [activator, single point] | 
C/C(N)=C(/C#N)C(=O)CSc1nc2cc(Cl)ccc2c(=O)n1-c1ccc(C)cc1 | inconclusive: 12.6 µM [activator, partial curve, poor fit] | 
CCCCCn1c(NC(=O)c2ccco2)c(S(=O)(=O)c2ccc(C)cc2)c2nc3ccccc3nc21 | inconclusive: 15.8 µM [activator, partial curve] | 
CCOc1ccc(NC(=O)c2ccc3c(SCC(=O)O)c4c(nc3c2)CCC4)cc1 | inactive | 
COc1ccc(OC)c(C2c3c(-c4ccc(Br)cc4)n[nH]c3C(=O)N2c2ccc(Cl)cc2)c1 (configuration not stated) | inconclusive: 31.6 µM [activator, single point] | 
O=C(Nc1nc(-c2cccs2)cs1)c1ccco1 | inconclusive: 25.1 µM [activator, partial curve] | 
Nc1ncc(-c2ccc(-c3ccccc3)cc2F)cc1-c1ccccc1F | inconclusive: 50.1 µM [activator, single point] | 
CCOC(=O)C1=CCC(c2ccccc2Cl)N(S(=O)(=O)c2ccc(C)cc2)C1 (configuration not stated) | inconclusive: 50.1 µM [activator, partial curve, poor fit] | 
Cc1ccccc1C(=O)Nc1nc(-c2ccc(Br)cc2)ns1 | inactive | 
CCOCc1c(C(=O)Nc2ccc3nc(N4CCOCC4)sc3c2)oc2ccccc12 | inconclusive: 25.1 µM [activator, single point] | 
CC(C)NC(=O)C1CCC(Cn2c(=O)c3sccc3n(CC(=O)Nc3ccccc3)c2=O)CC1 (configuration not stated) | inactive | 
CC(C)Oc1ccc(CNC(=O)C2CCN(C(=O)N3CC(C)Oc4ccccc43)CC2)cc1 (configuration not stated) | inactive | 
CCNC(=O)CN(c1ccc(C)cc1)S(=O)(=O)c1ccc(SC)cc1 |  | inconclusive: 57.5% [activator]
CCOC(=O)c1cnc2ccc(OCC)cc2c1N1CCN(c2ccccc2F)CC1 | inconclusive: 50.1 µM [activator, single point] | 
Cc1ccc(Cn2nnc3c(=O)[nH]c(C4CCN(S(=O)(=O)c5ccccc5)CC4)nc32)cc1 | inconclusive: 50.1 µM [activator, single point] | 
CCN(CC)c1ccc(S(=O)(=O)N2CCOCC2)cc1NC(=O)COC(=O)/C=C/c1ccccc1 | inconclusive: 10 µM [activator, partial curve] | 
COc1ccc(/C=C/S(=O)(=O)NCc2ccc(F)cc2)c(CNC(=O)OC(C)(C)C)c1 | inconclusive: 28.2 µM [activator, single point] | 
CCN(CC)CCCNC(=O)CSc1nc(-c2ccc(OC)cc2)cc(C(F)(F)F)n1 | inactive | 
O=C(CSCc1cnn(-c2ccccc2)c1-n1cccc1)NCc1ccc(F)cc1 | inconclusive: 25.1 µM [activator, single point] | 

SMILES | Potency | growth rescue (activation)
Cc1sc2nc(SCC(=O)NCc3cccs3)[nH]c(=O)c2c1C | inactive | 
C[C@H](NC(=O)c1nc[nH]c1C(=O)N[C@@H](Cc1ccccc1)C(=O)OC(C)(C)C)C(=O)OC(C)(C)C | inconclusive: 10 µM [activator, partial curve] | 
CCCCn1c(N)c(N(CC)C(=O)CCNC(=O)NC23CC4CC(CC(C4)C2)C3)c(=O)[nH]c1=O | inactive | 
Cc1ccc(CNC(=O)c2ccc(N3CCC4(CC3)CC(c3cccc(Br)c3)=NO4)c(NC(=O)c3ccc(Br)cc3)c2)cc1 | inactive | 
COc1ccccc1C(=O)NC1CCCCN(Cc2ccc(OC(F)(F)F)cc2)C1=O (configuration not stated) | inconclusive: 31.6 µM [activator, single point] | 
Cc1ccc(F)cc1C(=O)N1CCCC(c2cc(C(=O)Nc3ccccc3Cl)no2)C1 (configuration not stated) | inconclusive: 28.2 µM [activator, single point] | 
CC1CCN(c2ccc(-c3nc(-c4ccccc4)no3)cc2[N+](=O)[O-])CC1 | inactive | 
CCc1cccc(C)c1NC(=O)CCCN1C(=O)C(c2ccccc2)Oc2cccnc21 (configuration not stated) | inactive | 
CC(=NCc1cccc(Cl)c1)c1nc(-c2ccco2)oc1O | inactive | 
CC(NCc1ccco1)C(=O)N1CCN(c2ccc(F)cc2)CC1 (configuration not stated) | inactive | 
Cc1cc(N2CCCCC2)nc2ccc(NC(=O)/C=C/c3ccc(OCCC(C)C)cc3)cc12 | inactive | 
CN(C)c1ccc(NC(=S)Nc2ccc3c(c2)c(=O)n(C)n3-c2ccc(C(C)(C)C)cc2)cc1 | inconclusive: 17.8 µM [activator, partial curve, poor fit] | 
C/C(CC(=O)Nc1ccc(N(C)C)cc1)=N\NC(=O)c1ccc([N+](=O)[O-])cc1 | inconclusive: 44.7 µM [activator, partial curve, poor fit] | 
CC(=NC1CC1)c1c(-c2ccccc2)[nH]n(-c2nc3ccccc3s2)c1=O | inconclusive: 25.1 µM [activator, partial curve, poor fit] | 
C=CCC[C@H](Cc1ccc(F)cc1)C(=O)OC[C@@H](NC(=O)[C@@H](CC=C)CC(=O)N(CCO)Cc1ccccc1)C(C)(C)C | inconclusive: 10 µM [activator, partial curve] | 
Cc1cccc(NC(=O)CN2C(=O)CCn3nc(-c4cccn4C)cc32)c1C | inactive | 
COc1ccccc1CNC(=O)CSc1nn2c(=O)c(C(C)(C)C)nnc2s1 | inconclusive: 20 µM [activator, partial curve] | 
CCOC(=O)C1CCCN(C(=O)c2ccc3c(c2)N(Cc2ccc(Cl)cc2)C(=O)c2ccccc2S3=O)C1 (configuration not stated) | inconclusive: 22.4 µM [activator, partial curve] | 
C[C@H](CO)N1C[C@H](C)[C@@H](CN(C)S(=O)(=O)c2ccc(F)cc2)Oc2ccc(NC(=O)NC3CCCCC3)cc2C1=O | inconclusive: 35.5 µM [activator, single point] | 
Cc1cc(C)cc(NS(=O)(=O)c2ccc3oc(=O)ccc3c2)c1 | inactive | 
